Test results taken from the supplement of paper PMC11417369.
The list shows a part of the results.

Tested on: PfHDP1 homeodomain (GST-tagged)
Test: gcPBM binding intensity (ln(normalized median fluorescence intensity)); higher = stronger DNA binding
Method in brief: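 An Agilent 4 × 180k array carrying primer-extended double-stranded 36-bp intergenic genomic probes and negative controls received GST-tagged P. falciparum DNA-binding domains expressed in E. coli, about 25 μg on average, for 1 h. The binding buffer contained 1× PBS, 1% milk, 0.2 mg/ml BSA, 0.5% salmon testes DNA and 0.03% Triton X-100. Binding intensity is the top Masliner-normalised natural-log median intensity across replicate spots of either probe orientation, read after Alexa488 anti-GST antibody staining and a 488 nm scan.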

Sequence	gcPBM binding intensity (ln)
ATTTTTTTCTTAGGAGTGCACTTATATTTATTTTAT	10.3
TTATAATAAAGAGGAGTGCAAAAAAAAAAAAAAAAA	7.87
AATCAAAATATATCTACACACATTTAAGTAACACAT [CACACA_site3482]	6.7
TAAATATCAAAACACACACACAAAAGTGAATAAATA [CACACA_site3762]	6.64
ACAAGGAATATATAAGATAATTTTAAATATAACACG [CACACA_negctrl_site1734]	6.48
ATATATATAATTTTTACACACGCAATAAATATATAT [CACACA_site218]	6.73
AAAAAAAAAAAAAACACACACACAAGAGTATATAAA [CACACA_site6580]	6.69
ATGAATTTATTACATTGTACATTTTTAAAAGGTTAC [XGTACX_site124]	6.4
TTATATATTTTTTTTTGTACATAGAAGAGGGAAAAA [XGTACX_site2178]	6.49
TATACATACATACATACACACACACCGATATATACA [CACACA_site8184]	7.18
TTCCAAAAAATTATTACACACATATGGGCACATATA [CACACA_site679]	6.54
ATTCTATAATATAAGAGTACTTATTTTTTTTAATTT [XGTACX_site7671]	6.33
TATAAAATTAAACAAAGTACTAGACATATATATAGA [XGTACX_site3247]	6.57
AATGTTATTTGTTTATCACACATTAGGATGTTTATA [CACACA_site5710]	6.54
ACGCTAATTATGTGCACACAAATTAAAGGTCTACAA [CACACA_site147]	11.4
TGTTTCTGCTCTGGACATTTTTAAAAAAGGGAAAGC [CACACA_negctrl_site1463]	6.8
ACAAAAAAACATGAAACACACACAAATATATATATA [CACACA_site8566]	8.55
TGCCTATTTTGGATGTGTACACATATATATATTTAT [XGTACX_site6741]	7.68
TTATAATATTATAAAATAACATTTATTAATTATTGG [CACACA_negctrl_site1794]	6.43
TTATTATATTAAAATTGTACTTGCTTTCAATATGAT [XGTACX_site5305]	6.25
TAAACGTTATATAGTGCATGTCATATTTTATTATAT [TGCATGCA_site935]	7.18
TACACGCTAAAATACACACACACACCCACATATATA [CACACA_site4153]	6.88
TTCCCTCCTCAAAATTGTACTAGAATAATAACATAA [XGTACX_site8765]	6.38

Sequence	gcPBM binding intensity (ln)
TTTTTTAAACATATTATGTGTATTACATAGTTATGC [XGTACX_negctrl_site596]	6.28
AGCTATGTATTCTACACACACATACAGACATATATA [CACACA_site3428]	6.72
TTTGCATTTCTTAATTGTACTTAAAAAAAAAATAAT [XGTACX_site758]	6.41
ACGATGCATTAATCTGCACACCACAACAAAACGTTT [CACACA_site899]	8.64
AATCATTTTATTATCCTAACAAAAAAAAAATATATT [CACACA_negctrl_site115]	6.09
ACAACGCGTTAAATGTGTACATATTTATAAGTATAT [XGTACX_site8777]	6.48
AAAAAAAAAAAAAAATTAAAGTAATGGAAAAAAAAA [CACACA_negctrl_site1666]	6.11
TATATTATAAACATATGTACATATGTATAAATACAT [XGTACX_site722]	6.48
ATTATTAATATTATATGTACGCACTATATCAAGGCT [XGTACX_site6468]	6.78
AACATATATATATACACACACATATATATATGAAAT [CACACA_site279]	6.73
TATACCAATGAATGAGTGCAAAGAAGATAAGGAAAA	8.72
AAGGTATTTATAACTACACACTTATTTATAACCTAA [CACACA_site6194]	6.11
AATAAAATGAAATGAAATAAAAAAAAAAAAAAAATG [TGCATGCA_negctrl_site305]	6.39
ACTTATTGTGGTTTTGCATGTAGCATTTTTACATAC [TGCATGCA_site247]	7.08
TATGAACATATATATTGTACAAAATTATAATTTCAA [XGTACX_site6406]	6.41
AGTTCAGAATTGAATAGTACATAAATATAACAAAAT [XGTACX_site650]	6.76
AAGCGAATCTATATCACACACAAAAAAATCAGACTA [CACACA_site7072]	6.71
AACTGATATTAATTCTGTACCTATACGTTATATGTT [XGTACX_site1003]	6.32
TTGTCATTATTATATTGTACAATAAGTATTAAAGAA [XGTACX_site1205]	7.07
TATATATATTCTTTGTGTACTCATATAAGGGTAGAA [XGTACX_site8121]	6.87
AATCAATATTATATATGTACTTATTTTCACTTTTGC [XGTACX_site1775]	6.56
TATTTAAATTAATATTGTACATATATTTATAATATA [XGTACX_site6109]	6.42
TTTATTTATATAATTACACACATATATACACAAATG [CACACA_site8903]	6.83

Sequence	gcPBM binding intensity (ln)
AAATATATTATATATGCATGCGCCAAGATTTATATA [TGCATGCA_site770]	6.66
AATAAACAAATAAATAAATAAACAGATAAATAAATC [CACACA_negctrl_site920]	6.51
GAGAACATTGATACACGTACATAAGTTATAAGTATT [XGTACX_site7665]	6.26
AAGCATCCTACTGATTGTACATATATATATATATAT [XGTACX_site2150]	9.18
TAATATATATAACAAGTGCAAAAAAATATAGATATT [GTGCAC_site9625]	8.6
TTAGGTTATAAATACACACACAAAAGAAAAAAAAAA [CACACA_site5625]	6.71
ACCCAAAATATATTCACACAAAAAATATTAAAAATA [CACACA_site5433]	6.4
TTTGAAAAAAAATATTGTACACGTGAATAAAGTATT [XGTACX_site644]	6.68
AAAAATAAATATACATGTACATAATAATAATATATA [XGTACX_site8359]	6.57
TTGCATCTATTTTTGAGTACACAATGAGAATAATTA [XGTACX_site7171]	6.75
TTATTATATATGTTCACATAAATACATAAATATATA [GTGCAC_negctrl_site529]	6.2
TTAAAAAAGTAATTAACACACAATAATGTAATGCAT [CACACA_site4176]	6.53
AAAAAAAAAAGACACACACACACATACACATACATA [CACACA_site7362]	7.1
TATATATATATATATATATATATATATATAATTTGA [XGTACX_negctrl_site3]	9.41
TATTTTATTTTCCGAAGTACAAAAGCAAAAAAAAAC [XGTACX_site103]	6.84
TATATTTATATAATATGTACATATTTTTTAATATTT [XGTACX_site3834]	6.41
AGCTAAAATATTTTTGCACACGATTTTTTTTTTTTT [CACACA_site1140]	9.82
CGCGAACATACATACACACACATATATATATATGTA [CACACA_site205]	6.98
TTTTTTTTTTTTTGAACACACATTATTAACTTTTAT [CACACA_site6281]	6.38
AAAAAAAAGTTATATACACACATATAAATATAAATA [CACACA_site6683]	6.39
TATATATTTTATATATGTACATATTTATATGTTTCT [XGTACX_site1818]	6.28
AAAAATATTAAAAGGCGTACAATACCTGTATGCAAC [XGTACX_site6069]	6.12
CATGTAAAATATTAAAGTACATGATTATATATATAT [XGTACX_site7486]	8.65

Sequence	gcPBM binding intensity (ln)
TATAAATTTATACCAGTGCATTTTGAAATATATATA	8.42
TGGAACCATAAAAAGTGTACACATATAAAAAATATG [XGTACX_site96]	7.25
ATAATATGAGTCCCACAAAATAGACCATACGAATAT [CACACA_negctrl_site50]	6.3
AAATAATACATTCGTACTACACATATATATTAAATA [XGTACX_site7806]	6.59
TAAAATGTTATAAGAACATGCAATTCCTTTTATTAT [TGCATGCA_site408]	6.09
AATATATACATATATACACACACATATATATATATA [CACACA_site8907]	9.2
ATTTTAATTTTGTATACACACATTTGAATTATTAAT [CACACA_site3528]	6.87
TATATGTCCATATTTCCACACACATATTATTTTTAT [CACACA_site9266]	6.81
AGAGAGAACGGTATAACATGCGATAAATTTTAGAAG [TGCATGCA_site357]	6.58
TTTTTTCAATAAATAATCGTATATTGAATAATAATA [CACACA_negctrl_site822]	6.08
ATGCACGGAAAAATATGTACTTAATTTCAATAATAT [XGTACX_site8311]	7.65
CGGACATACTAACGGACACACGTAAGAAAAAAAAAG [CACACA_site4504]	6.4
TATTAATTTTTCCTTTTTTTTTTACCCCTTTGTACA [CACACA_negctrl_site947]	6.15
ATATATTATATTATATGTACTTAAAAAAGTGCAAAG [XGTACX_site318]	9.16
TATATTCAATTTTTGGTGCGTAAATTAATACAAACA [GTGCAC_site9764]	8.27
CACATACACCCATACACACACATATATATTAAGATA [CACACA_site4459]	7.47
AATACATACAGACACACACACACATATATATATATA [CACACA_site3558]	9.1
AAACTTAATATCGGTACACACACAAGATAAGAATTA [CACACA_site8200]	6.48
ATATATATATAGTGCACACTTAAGAATATAAAGAGG [CACACA_site1151]	10.7
CTATAAATATTTTATTGTACACACTTTTTATGAATG [XGTACX_site6711]	6.92
